Measurements reported in the supplement of paper PMC3722116.
Growth of fresh clinical P. falciparum isolates by hypoxanthine uptake over 42 h; for most isolates 1.6-1,647 nM mefloquine, 0.044-87 nM artesunate, 10-10,256 nM chloroquine, 2.4-236 nM lumefantrine. EC50, lower = more sensitive; slope from the same fit, higher = steeper. No active / inactive call. Fits with a coefficient of variation above 100% are not listed here; 15-28% of fits exceed 15%. Isolates are numbered anew.

Key:
[1] = compound: T1, OC(c1cc(C(F)(F)F)nc2c(C(F)(F)F)cccc12)C1CCCCN1 [mefloquine]; assay: slope of the dose-response curve (dimensionless); higher = steeper concentration-effect curve
Experimental: (§1)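 Hypoxanthine uptake by fresh isolates, duplicate serial dilutions, 24 h of drug plus 18 h after the label; sigmoid fit per isolate.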

[2] = compound: T1, mefloquine
Experimental: as §1

[3] = compound: T2, C[C@H]1[C@H](OC(=O)CCC(=O)O)O[C@@H]2O[C@@]3(C)CC[C@H]4[C@H](C)CC[C@@H]1[C@@]24OO3 [artesunate]; assay: slope of the dose-response curve (dimensionless); higher = steeper concentration-effect curve
Experimental: as §1

[4] = compound: T2, artesunate
Experimental: as §1

| Test System | slope [1] | EC50 of parasite growth [2] [ng/mL] | slope [3] | EC50 of parasite growth [4] [ng/mL] |
| --- | --- | --- | --- | --- |
| Plasmodium falciparum isolate 145 (pfmdr1 allele: 86N, 1042N, pfmdr1 copies: 4) | 9.84 | 116 |  |  |
| Plasmodium falciparum isolate 475 (pfmdr1 allele: 86N, 1042N, pfmdr1 copies: 3) |  |  | 0.947 | 0.175 |
| Plasmodium falciparum isolate 196 (pfmdr1 allele: 86N, 1042N, pfmdr1 copies: 2) | 3.48 | 51.8 |  |  |
| Plasmodium falciparum isolate 479 (pfmdr1 allele: 86N, 1042N, pfmdr1 copies: 1) | 2.8 | 13.4 | 4.95 | 0.552 |
| Plasmodium falciparum isolate 66 (pfmdr1 allele: 86Y, pfmdr1 copies: 1) | 2.68 | 4.59 | 3.83 | 1.58 |
| Plasmodium falciparum isolate 93 (pfmdr1 allele: 86N, 1042N, pfmdr1 copies: 1) | 1.67 | 3.89 | 4.03 | 0.345 |
| Plasmodium falciparum isolate 142 (pfmdr1 allele: 86N, 1042N, pfmdr1 copies: 3) | 5.89 | 87.4 |  |  |
| Plasmodium falciparum isolate 152 (pfmdr1 allele: 86N, 1042N, pfmdr1 copies: 2) | 3.17 | 40.8 |  |  |
| Plasmodium falciparum isolate 28 (pfmdr1 allele: 86N, 1042N, pfmdr1 copies: 5) | 6.27 | 141 | 6.85 | 3.7 |
| Plasmodium falciparum isolate 166 (pfmdr1 allele: 86N, 1042N, pfmdr1 copies: 1) | 3.09 | 3.33 | 3.53 | 0.297 |
| Plasmodium falciparum isolate 191 (pfmdr1 allele: 86N, 1042N, pfmdr1 copies: 3) | 2.61 | 120 | 6.28 | 2.3 |
| Plasmodium falciparum isolate 163 (pfmdr1 allele: 86N, 1042N, pfmdr1 copies: 1) | 2.75 | 12.8 | 3.34 | 0.623 |
| Plasmodium falciparum isolate 249 (pfmdr1 allele: 86N, 1042N, pfmdr1 copies: 1) |  |  | 9.98 | 1.66 |
| Plasmodium falciparum isolate 116 (pfmdr1 allele: 86N, 1042N, pfmdr1 copies: 1) |  |  | 5.02 | 0.655 |
| Plasmodium falciparum isolate 127 (pfmdr1 allele: 86N, 1042N, pfmdr1 copies: 1) |  |  | 3.83 | 4.73 |
| Plasmodium falciparum isolate 154 (pfmdr1 allele: 86N, 1042N, pfmdr1 copies: 1) | 2.91 | 21 | 9.72 | 1.31 |
| Plasmodium falciparum isolate 21 (pfmdr1 allele: 86N, 1042N, pfmdr1 copies: 2) | 1.43 | 70.4 | 7.94 | 1.3 |
| Plasmodium falciparum isolate 368 (pfmdr1 allele: 1042D, pfmdr1 copies: 1) | 3.69 | 2.5 | 3.88 | 0.427 |
| Plasmodium falciparum isolate 187 (pfmdr1 allele: 86N, 1042N, pfmdr1 copies: 1) | 1.38 | 8.27 | 6.06 | 0.349 |
| Plasmodium falciparum isolate 153 (pfmdr1 allele: 86N, 1042N, pfmdr1 copies: 2) | 7.25 | 73.7 | 9.58 | 2.63 |
| Plasmodium falciparum isolate 30 (pfmdr1 allele: 86N, 1042N, pfmdr1 copies: 1) | 3.74 | 32.3 | 4.23 | 1.32 |
| Plasmodium falciparum isolate 289 (pfmdr1 allele: 1042D, pfmdr1 copies: 1) | 1.25 | 2.37 | 2.9 | 0.401 |

| Test System | slope [1] | EC50 of parasite growth [2] [ng/mL] | slope [3] | EC50 of parasite growth [4] [ng/mL] |
| --- | --- | --- | --- | --- |
| Plasmodium falciparum isolate 256 (pfmdr1 allele: 86N, 1042N, pfmdr1 copies: 2) |  |  | 5.86 | 5.65 |
| Plasmodium falciparum isolate 356 (pfmdr1 allele: 86N, 1042N, pfmdr1 copies: 3) | 0.837 | 8.74 | 9.98 | 1.96 |
| Plasmodium falciparum isolate 401 (pfmdr1 allele: 86N, 1042N, pfmdr1 copies: 3) | 6.64 | 66.4 |  |  |
| Plasmodium falciparum isolate 6 (pfmdr1 allele: 86N, 1042N, pfmdr1 copies: 1) | 2.19 | 7.16 | 3.47 | 0.356 |
| Plasmodium falciparum isolate 167 (pfmdr1 allele: 86Y, pfmdr1 copies: 1) | 1.59 | 4.43 | 15.1 | 1.68 |
| Plasmodium falciparum isolate 31 (pfmdr1 allele: 86N, 1042N, pfmdr1 copies: 2) |  |  | 10 | 6.5 |
| Plasmodium falciparum isolate 9 (pfmdr1 allele: 86N, 1042N, pfmdr1 copies: 3) | 10 | 182 |  |  |
| Plasmodium falciparum isolate 172 (pfmdr1 allele: 86N, 1042N, pfmdr1 copies: 3) |  |  | 1.84 | 4.06 |
| Plasmodium falciparum isolate 443 (pfmdr1 allele: 86N, 1042N, pfmdr1 copies: 1) | 2.19 | 6.12 |  |  |
| Plasmodium falciparum isolate 383 (pfmdr1 allele: 86N, 1042N, pfmdr1 copies: 1) | 3.44 | 20.1 | 6.29 | 0.292 |
| Plasmodium falciparum isolate 481 (pfmdr1 allele: 86N, 1042N, pfmdr1 copies: 1) | 1.83 | 14 | 3.93 | 0.172 |
| Plasmodium falciparum isolate 62 (pfmdr1 allele: 1042D, pfmdr1 copies: 1) | 1.37 | 61.5 | 6.16 | 4.77 |
| Plasmodium falciparum isolate 185 (pfmdr1 allele: 86N, 1042N, pfmdr1 copies: 1) | 2.19 | 48.3 | 9.15 | 2.64 |
| Plasmodium falciparum isolate 204 (pfmdr1 allele: 86N, 1042N, pfmdr1 copies: 2) | 5.24 | 117 | 10 | 3.65 |
| Plasmodium falciparum isolate 288 (pfmdr1 allele: 1042D, pfmdr1 copies: 1) | 2.41 | 32.7 | 4.81 | 10.3 |
| Plasmodium falciparum isolate 448 (pfmdr1 allele: 86N, 1042N, pfmdr1 copies: 3) | 2.73 | 29.8 |  |  |
| Plasmodium falciparum isolate 102 (pfmdr1 allele: 86N, 1042N, pfmdr1 copies: 2) | 1.17 | 5.67 | 2.03 | 0.448 |
| Plasmodium falciparum isolate 60 (pfmdr1 allele: 86N, 1042N, pfmdr1 copies: 1) | 9.66 | 62.9 |  |  |
| Plasmodium falciparum isolate 261 (pfmdr1 allele: 86N, 1042N, pfmdr1 copies: 2) | 9.98 | 63.3 | 7.53 | 5.11 |
| Plasmodium falciparum isolate 33 (pfmdr1 allele: 86Y, pfmdr1 copies: 1) | 2.63 | 6.37 | 8.59 | 1.07 |
| Plasmodium falciparum isolate 173 (pfmdr1 allele: 1042D, pfmdr1 copies: 1) |  |  | 6.38 | 9.89 |
